# Laboratory results: the supplement of paper PMC5919970
# Counter-ions that a name gives are not always drawn. In all, about 2,000 compounds were measured (“fractional viability relative to vehicle”: median about 0.91, lowest 2% from about 0.045 on). Some of the results follow.
# Test system: TYKNU
# Assay: fractional viability relative to vehicle; TYKNU is a high-grade serous ovarian cancer line; higher = less growth inhibition
# Conditions: 72 h
# In short: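 TYKNU control cells or lentiCRISPRv2 knockout derivatives were seeded at 500 cells per well into drug-stamped 384-well plates holding a ~2100-compound library at 2 or 10 μM, in duplicate. Cells were grown at 37 °C in 5% CO2 in RPMI 1640 with 10% FBS, and drug treatment lasted 72 h. Viability was read by Cell Titer Glo luminescence. Duplicate treatment wells were averaged and normalised to duplicate control wells from the same plate position.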
# [1] = 2uM, genotype: DNM1L knockout (sgDNM1L #1)
# [2] = 2uM, genotype: sgCTRLA1 (non-targeting control)
# [3] = 10uM, genotype: DNM1L knockout (sgDNM1L #1)
# [4] = 10uM, genotype: sgCTRLA1 (non-targeting control)
SMILES,fractional viability [1],fractional viability [2],fractional viability [3],fractional viability [4]
c1cn2cc(-c3ccc4cn[nH]c4c3)nc(Nc3ccc(N4CCOCC4)cc3)c2n1,0.866,0.977,0.0803,0.34
COc1ccccc1N1CCN(CCCNc2cc(=O)n(C)c(=O)n2C)CC1 [Urapidil HCl],0.945,1.1,0.822,1.02
O=C(Nc1cccc(Nc2ncc(Br)c(NCCc3cnc[nH]3)n2)c1)N1CCCC1,0.738,0.873,0.413,0.448
CN(C)CCCn1cc(C2=C(c3c[nH]c4ccccc34)C(=O)NC2=O)c2ccccc21,0.874,0.991,0.354,0.397
COc1nc(N)nc2c1ncn2[C@@H]1O[C@H](CO)[C@@H](O)[C@@H]1O [Nelarabine],1.18,1.2,1.06,1.16
O=C(/C=C/C=C/c1ccc2c(c1)OCO2)N1CCCCC1 [Piperine],0.998,1.08,0.915,1.03
O=C(O)C(S)=Cc1c[nH]c2ccc(F)cc12,0.732,0.984,0.838,0.827
O=c1c2ccccc2nc2n1CCc1c-2[nH]c2ccccc12 [Rutaecarpine],1.31,1.3,1.11,1.01
CCC(=O)OCC(=O)[C@@]1(OC(=O)CC)[C@@H](C)C[C@H]2[C@@H]3CCC4=CC(=O)C=C[C@]4(C)[C@@]3(Cl)[C@@H](O)C[C@@]21C [Beclomethasone dipropionate],1.11,1.14,0.784,1.05
Cc1cc(C)nc(SCC(=O)Nc2ncc(Cc3cccc4ccccc34)s2)n1,0.849,0.957,0.785,0.802
O=C1NC(=O)[C@@H](c2cn3c4c(cccc24)CCC3)[C@@H]1c1c[nH]c2ccccc12 [Tivantinib (ARQ 197)],0.226,0.303,0.147,0.125
CCc1cnn2c(NCc3ccc[n+]([O-])c3)cc(N3CCCC[C@H]3CCO)nc12,0.305,0.295,0.298,0.31
C[C@@]1(c2cc(-c3cncnc3)c(F)cc2F)CCSC(N)=N1,1.01,1.06,0.851,1.01
C[C@H]1Oc2cc(cnc2N)-c2c(nn(C)c2C#N)CN(C)C(=O)c2ccc(F)cc21,0.636,0.813,0.659,0.556
CCOC(=O)Nc1ccc(NCc2ccc(F)cc2)nc1N [Flupirtine maleate],0.981,1.12,0.8,1.02
O=C(O)CCCC[C@@H]1SC[C@@H]2NC(=O)N[C@@H]21 [Biotin (Vitamin B7)],1.01,1.16,0.883,1.14
CCOc1cc(C(C)(C)C)ccc1C1=N[C@@](C)(c2ccc(Cl)cc2)[C@@](C)(c2ccc(Cl)cc2)N1C(=O)N1CCN(CCCS(C)(=O)=O)CC1,0.328,0.326,0.245,0.277
O=C(/C=C/N1C[C@H]2C[C@@H]1CN2c1ccccn1)c1ccccc1O,0.753,0.995,0.725,1.03
CC(=O)SCC(Cc1ccccc1)C(=O)NCC(=O)OCc1ccccc1 (centres undefined) [Racecadotril],0.977,1.16,0.804,1.13
C[C@H](CCC(=O)O)[C@H]1CC[C@H]2[C@@H]3CC[C@@H]4C[C@H](O)CC[C@]4(C)[C@H]3CC[C@]12C [Lithocholic acid],1.08,1.14,0.879,1.06
Cn1c(Nc2ccc(C(F)(F)F)cc2)nc2cc(Oc3ccnc(-c4ncc(C(F)(F)F)[nH]4)c3)ccc21,0.345,0.325,0.292,0.271

SMILES,fractional viability [1],fractional viability [2],fractional viability [3],fractional viability [4]
COC(=O)C1=C(C)NC(C)=C(C(=O)OC(C)C)C1c1cccc2nonc12 (centres undefined) [Isradipine],0.992,1.11,0.775,0.961
CC(=O)OCC[N+](C)(C)C [Acetylcholine Chloride],0.908,0.998,0.907,1.05
CC1(C)CCC2=C(O1)c1ccccc1C(=O)C2=O [Beta-Lapachone],0.128,0.0912,0.0219,0.023
S=C(NCc1ccc2c(c1)OCO2)N1CCN(c2ncnc3c2oc2ccccc23)CC1 [Amuvatinib (MP-470)],0.884,0.774,0.554,0.314
OCCN1C[C@H](O)[C@@H](O)[C@H](O)[C@H]1CO [Miglitol],0.951,1.15,0.776,0.983
CC(C)C(=O)Nc1ccc([N+](=O)[O-])c(C(F)(F)F)c1 [Flutamide],0.954,1.15,0.769,0.968
Cn1cnc([N+](=O)[O-])c1Sc1ncnc2[nH]cnc12 [Azathioprine],1.07,0.812,1.12,0.784
CC(=O)Oc1cc2c(s1)CCN(C(C(=O)C1CC1)c1ccccc1F)C2 (centres undefined) [Prasugrel],1.14,1.21,0.897,1.08
CC(C)CN(C[C@@H](O)[C@H](Cc1ccccc1)NC(=O)O[C@H]1CO[C@H]2OCC[C@H]21)S(=O)(=O)c1ccc(N)cc1 [Darunavir Ethanolate],1.05,1.13,0.94,1.04
COc1cc(/C=C/C(=O)CC(=O)/C=C/c2ccc(O)c(OC)c2)ccc1O [Curcumin],1.02,1.02,0.92,0.898
Cc1cc2c(F)c(Oc3ncnn4cc(OC[C@@H](C)O)c(C)c34)ccc2[nH]1,0.804,0.956,0.487,0.469
O=C(O)CSCC(=O)NC1CCSC1=O (centres undefined) [Erdosteine],1.12,0.966,0.984,0.987
CN1CCN(C2CCN(C(=O)Nc3cc(Oc4ccc(NC(=O)C5(C(=O)Nc6ccc(F)cc6)CC5)c(F)c4)ccn3)CC2)CC1 [Golvatinib (E7050)],0.89,0.894,0.198,0.168
C[N+](C)(C)CCO.[Cl-] [Choline Chloride],0.782,1.05,0.777,0.905
O=c1[nH]cnc2[nH]ncc12 [Allopurinol Sodium],1.03,1.12,0.954,1.13
CCOC(=O)[C@H](CCc1ccccc1)N[C@@H](C)C(=O)N1Cc2cc(OC)c(OC)cc2C[C@H]1C(=O)O [Moexipril HCl],0.907,1.2,0.939,1.1
Cn1cc(-c2ccc3nnc(Sc4ccc5ncccc5c4)n3n2)cn1,1.1,1.07,1.09,1.12
Clc1ccc(Nc2nnc(Cc3ccncc3)c3ccccc23)cc1 [Vatalanib (PTK787) 2HCl],1.08,1.08,1.06,1.05
Cc1cc(O)c2c(c1)C(=O)c1cc(O)cc(O)c1C2=O [Emodin],1.11,1.13,0.844,0.99
O=C1NC(=O)/C(=C/c2cccc(C(F)(F)F)c2)S1,0.748,0.945,0.687,0.786
Nc1nc(O)c2ncn(CCC(CO)CO)c2n1 [Penciclovir],0.91,1.11,0.833,1.2

SMILES,fractional viability [1],fractional viability [2],fractional viability [3],fractional viability [4]
Fc1ccc([C@@H]2CCNC[C@H]2COc2ccc3c(c2)OCO3)cc1 [Paroxetine HCl],1.02,0.935,0.299,0.347
CN(C/C=C/C#CC(C)(C)C)Cc1cccc2ccccc12 [Terbinafine],1.1,1.16,0.828,0.997
CN(C/C=C/C#CC(C)(C)C)Cc1cccc2ccccc12 [Terbinafine HCl],1.08,1.07,0.889,1
O=c1[nH]cnc2c1ncn2[C@H]1CC[C@@H](CO)O1 [Didanosine],0.976,1.12,0.872,0.985
Nc1nc(Nc2ccc3c(c2)CCC(N2CCCC2)CC3)nn1-c1cc2c(nn1)-c1ccccc1CCC2 (centres undefined),0.343,0.242,0.0232,0.0259
CCCC(=O)OCOC(=O)C1=C(C)NC(C)=C(C(=O)OC)C1c1cccc(Cl)c1Cl (centres undefined) [Clevidipine Butyrate],0.856,1.02,0.882,0.982
NC(CO)C(=O)NNCc1ccc(O)c(O)c1O (centres undefined) [Benserazide HCl],1.13,1.06,1.01,0.448
C[C@H]1COc2c(N3CCN(C)CC3)c(F)cc3c(=O)c(C(=O)O)cn1c23 [Levofloxacin],1.04,1.22,0.86,1.22
CCC(=O)Nc1cccc(Oc2nc(Nc3ccc(N4CCN(C)CC4)cc3OC)ncc2Cl)c1,0.867,0.981,0.303,0.347
C=CC(=O)Nc1cccc(Nc2nc(Nc3ccc(OCCOC)cc3)ncc2F)c1,0.626,0.721,0.273,0.297
N#Cc1c(NC(=O)c2cccc3ccccc23)sc2c1CCCC2 [JNK Inhibitor IX],0.125,0.11,0.127,0.0878
COC(=O)Nc1nc2cc([S+]([O-])c3ccccc3)ccc2[nH]1 (centres undefined) [Oxfendazole],1.06,1.09,0.846,0.91
CCc1c(Cl)c(O)c(Cl)c(O)c1C(=O)O[C@H]1[C@H](O)[C@H](OC)[C@H](OC/C2=C\C=C\C[C@H](O)/C(C)=C/[C@H](CC)[C@@H](O[C@@H]3OC(C)(C)[C@@H](OC(=O)C(C)C)[C@H](O)[C@@H]3O)/C(C)=C/C(C)=C/C[C@@H]([C@@H](C)O)OC2=O)O[C@@H]1C [Fidaxomicin],0.741,0.893,0.494,0.0966
Nc1ccn([C@@H]2CS[C@H](CO)O2)c(=O)n1 [Lamivudine],1.02,1.02,0.884,0.91
COc1ccccc1OCC(O)COC(N)=O (centres undefined) [Methocarbamol],1.02,1.16,0.9,1
O=C1NCCCc2c1oc1ccc(O)cc21,0.944,1.01,0.872,1.07
O=C(Nc1ccccc1)Nc1ccc(-c2ccc(C(=O)[C@@H]3CCC[C@H]3C(=O)O)cc2)cc1,1.15,1.01,0.991,1.12
CN(C)C/C=C/C(=O)Nc1cc2c(Nc3ccc(F)c(Cl)c3)ncnc2cc1O[C@H]1CCOC1 [Afatinib (BIBW2992) Dimaleate],0.77,0.984,0.77,0.767
CN(C)C/C=C/C(=O)Nc1cc2c(Nc3ccc(F)c(Cl)c3)ncnc2cc1O[C@H]1CCOC1 [Afatinib (BIBW2992)],0.578,0.809,0.0953,0.0868
